The whole screen tested about 39,000 compounds, of which about 220 (0.56%) showed activity. The list shows a part of the results.
Each compound was assayed on Escherichia coli K-12 BW25113 (assay: relative growth (OD600 normalised to plate interquartile mean) (fraction); higher = less growth inhibition, active = 0.2 or less). Conditions: 50 µM; LB; incubation time: overnight (16-24 h).
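Further: static incubation at 37 °C against the wild-type strain, values averaged over two biological replicates.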

SMILES	relative growth
COc1ccc(C#Cc2ccc3c(c2)[C@]2(C(=O)N3)[C@H](c3ccc(O)cc3)N3[C@H](c4ccccc4)[C@H](c4ccccc4)OC(=O)[C@H]3[C@@H]2C(=O)N2CCN(c3ncccn3)CC2)cc1	inactive: 1.03
C[C@H]1CN([C@@H](C)CO)C(=O)c2cccc(NS(=O)(=O)c3ccc(Cl)cc3)c2O[C@@H]1CN(C)Cc1ccc(Oc2ccccc2)cc1	inactive: 1.01
C[C@H]1CCCCO[C@H](CN(C)S(=O)(=O)c2ccc(F)cc2)[C@@H](C)CN([C@@H](C)CO)C(=O)c2cc(NS(=O)(=O)c3ccc(Cl)cc3)ccc2O1	inactive: 1.06
COc1ccc(NC(=O)N(C)C[C@H]2Oc3ccc(NC(=O)Nc4cccc5ccccc45)cc3C(=O)N([C@@H](C)CO)C[C@H]2C)cc1	inactive: 1.02
O=C(C[C@@H]1CC[C@@H]2[C@H](COC[C@H](O)CN2C(=O)c2cccnc2)O1)NCc1ccc(-c2ccccc2)cc1	inactive: 0.98
COc1oc(C(=O)NC2CCCCC2)c(-c2ccc(Cl)cc2)c1S(=O)(=O)c1ccc(Cl)cc1	inactive: 0.976
Cc1noc(C)c1NC(=O)N(C)C[C@H]1Oc2c(NC(=O)C3CC3)cccc2C(=O)N([C@H](C)CO)C[C@@H]1C	inactive: 1
C[C@H]1CCCCO[C@H](CN(C)CC2CC2)[C@@H](C)CN([C@@H](C)CO)C(=O)c2cc(NC(=O)Nc3ccc(C(F)(F)F)cc3)ccc2O1	inactive: 0.921
Cc1ccc(S(=O)(=O)N(C)C[C@H]2Oc3ccc(NS(=O)(=O)c4cn(C)cn4)cc3CC(=O)N([C@H](C)CO)C[C@@H]2C)cc1	inactive: 1.02
COc1ccc(C#Cc2ccc3c(c2)O[C@@H](CN(C)C(C)=O)[C@H](C)CN([C@@H](C)CO)S3(=O)=O)cc1	inactive: 1.03
Cc1noc(C)c1NC(=O)N(C)C[C@H]1Oc2c(NC(=O)Nc3cccc4ccccc34)cccc2C(=O)N([C@H](C)CO)C[C@H]1C	inactive: 1.02
Cn1cnc(CCNC(=O)C[C@@H]2CC[C@@H]3[C@H](COC[C@H](O)CN3C(=O)C3CC3)O2)c1	inactive: 0.964
Cc1ccc(S(=O)(=O)N[C@@H](Cc2ccccc2)C(=O)NCCCn2cc(CCC(=O)NO)nn2)cc1	inactive: 1
COc1ccc(N)nc1	inactive: 1.04
C[C@@H]1CN([C@H](C)CO)C(=O)CCCn2nncc2CO[C@H]1CN(C)C(=O)CCCN(C)C	inactive: 0.982
COCC(=O)Nc1ccc2c(c1)C(=O)N(C)C[C@@H](OC)[C@@H](C)CN(C(=O)c1ccccc1F)[C@H](C)CO2	inactive: 0.991
N[C@H](Cc1cnc[nH]1)C(=O)O	inactive: 0.982
C[C@@H]1CN([C@H](C)CO)C(=O)c2cc(NC(=O)CCC(F)(F)F)ccc2O[C@@H](C)CCCCO[C@H]1CN(C)C(=O)C1CCCCC1	inactive: 0.943
COc1ccc(-n2cc(C(=O)NO)nn2)cc1	inactive: 1.01
CO[C@@H]1CN(C)C(=O)c2ccc(NS(=O)(=O)CC(F)(F)F)cc2OC[C@H](C)N(C(=O)c2ccc3c(c2)OCO3)C[C@H]1C	inactive: 1.01
COc1ccc(NC(=O)N(C)C[C@H]2OCCCC[C@@H](C)Oc3ccc(NC(=O)CCC(F)(F)F)cc3C(=O)N([C@@H](C)CO)C[C@H]2C)cc1	inactive: 0.953

SMILES	relative growth
C[C@H]1CCCCO[C@H](CN(C)Cc2ccc3c(c2)OCO3)[C@@H](C)CN([C@@H](C)CO)C(=O)c2cc(NC(=O)Nc3ccc4c(c3)OCO4)ccc2O1	inactive: 1
Cc1noc(C)c1S(=O)(=O)Nc1ccc2c(c1)C(=O)N([C@H](C)CO)C[C@H](C)[C@@H](CN(C)Cc1ccc(-c3ccccc3)cc1)O2	inactive: 0.961
OC[C@H]1CN(Cc2ccccc2)CCO1	inactive: 0.999
C[C@@H]1CN([C@@H](C)CO)C(=O)c2cc(Br)cnc2O[C@@H]1CN(C)S(=O)(=O)c1ccccc1	inactive: 0.997
C[C@H]1CN([C@@H](C)CO)C(=O)c2cc(NC(=O)Cn3cnnn3)ccc2O[C@H]1CN(C)Cc1ccc(Cl)c(Cl)c1	inactive: 0.962
C[C@@H]1CCCCO[C@@H](CN(C)CC2CC2)[C@H](C)CN([C@@H](C)CO)C(=O)c2cc(NC(=O)C3CCCCC3)ccc2O1	inactive: 0.993
C[C@@H]1CCCCO[C@H](CN(C)S(=O)(=O)c2ccc(Cl)cc2)[C@H](C)CN([C@@H](C)CO)C(=O)c2cc(NC(=O)NC3CCCCC3)ccc2O1	inactive: 1.04
CNC(=O)c1ccc(CO)cc1	inactive: 1.03
C[C@H](CO)N1C[C@H](C)[C@@H](CN(C)S(=O)(=O)c2cccs2)Oc2c(NS(=O)(=O)c3ccccc3)cccc2C1=O	inactive: 1.02
CCC(C)(C)c1ccc(CC(C)CN2CC(C)OC(C)C2)cc1.Cl (configuration not stated)	inactive: 1.13
CC(C)(C)C(=O)OCOP(=O)(OCOC(=O)C(C)(C)C)C(C)(Oc1ccc(O)cc1)P(=O)(OCOC(=O)C(C)(C)C)OCOC(=O)C(C)(C)C	inactive: 1.1
O=C(CCCCCCC(=O)Nc1ccc([C@@H]2O[C@H](CSc3nc(-c4ccccc4)c(-c4ccccc4)o3)C[C@H](c3ccccc3)O2)cc1)NO	inactive: 0.991
O=C(Cc1ccncc1)Nc1ccc2c(c1)[C@@H]1C[C@H](CC(=O)N3CCc4ccccc4C3)O[C@@H](CO)[C@@H]1O2	inactive: 1
C[C@@H]1CN([C@@H](C)CO)C(=O)c2cc(NC(=O)Nc3ccccc3)ccc2O[C@@H](C)CCCCO[C@@H]1CN(C)C(=O)CCC(F)(F)F	inactive: 0.995
C[C@H]1CN([C@@H](C)CO)C(=O)Cc2cc(NC(=O)Cc3cn(C)c4ccccc34)ccc2O[C@@H]1CN(C)C(=O)Nc1ccc(C(F)(F)F)cc1	inactive: 1.01
Cc1noc(C[C@@H]2C[C@@H]3CN(S(C)(=O)=O)C[C@@H]3O2)n1	inactive: 1
COc1ccc(S(=O)(=O)N(C)C[C@@H]2Oc3ccc(NS(=O)(=O)c4ccc(F)cc4)cc3CC(=O)N([C@@H](C)CO)C[C@H]2C)cc1	inactive: 1.03
Cc1noc(C)c1NC(=O)N(C)C[C@@H]1Oc2ccc(NS(=O)(=O)c3c(C)noc3C)cc2C(=O)N([C@@H](C)CO)C[C@@H]1C	inactive: 0.983
C[C@H](CO)N1C[C@H](C)[C@H](CN(C)C(=O)Nc2ccc(C(F)(F)F)cc2)Oc2c(NC(=O)c3nc4ccccc4s3)cccc2C1=O	inactive: 1.02
C[C@H](CO)N1C[C@H](C)[C@H](CN(C)S(=O)(=O)c2ccc(Cl)cc2)Oc2c(NS(=O)(=O)c3cn(C)cn3)cccc2C1=O	inactive: 0.997
C[C@H]1COC(=O)[C@@H](Cc2ccc(F)cc2)CC=CC[C@@H](CC(=O)N(CCO)Cc2ccccc2)C(=O)N1	inactive: 0.992

SMILES	relative growth
Oc1c(Cl)cc(Cl)c(Cl)c1Cc1c(O)c(Cl)cc(Cl)c1Cl	active: 0.0546
O=Cc1ccc[nH]1	inactive: 1.02
Cc1c(N(C)C)c(=O)n(-c2ccccc2)n1C	inactive: 1.08
C[C@H]1CN([C@@H](C)CO)C(=O)Cc2cc(NC(=O)NC3CCCCC3)ccc2O[C@H]1CN(C)Cc1ccc(C(=O)Nc2ccccc2N)cc1	inactive: 0.993
COc1ccc(CNC(=O)C[C@H]2CC[C@H]3[C@H](COc4ccc(NC(=O)C5CC5)cc4C(=O)N3C)O2)cc1	inactive: 0.985
COc1ccc(S(=O)(=O)N(C)C[C@H]2OCCCC[C@@H](C)Oc3ccc(NS(C)(=O)=O)cc3C(=O)N([C@H](C)CO)C[C@@H]2C)cc1	inactive: 1.04
COc1ccc(NC(=O)Nc2ccc3c(c2)C(=O)N([C@H](C)CO)C[C@@H](C)[C@@H](CN(C)Cc2ccc(C(F)(F)F)cc2)OCCCC[C@H](C)O3)cc1	inactive: 1.04
COc1ccc(NC(=O)Nc2ccc3c(c2)C(=O)N([C@@H](C)CO)C[C@@H](C)[C@H](CN(C)Cc2ccc(Cl)c(Cl)c2)OCCCC[C@@H](C)O3)cc1	inactive: 1.02
CC[C@@H](C)NCc1sccc1C	inactive: 1.05
Cc1ccc(S(=O)(=O)N(C)C[C@H]2OCCCC[C@@H](C)Oc3ccc(NC(=O)NC4CCCCC4)cc3C(=O)N([C@H](C)CO)C[C@@H]2C)cc1	inactive: 0.994
O=C(CCC1CCCCC1)NCCC12CC3CC(CC(C3)C1)C2	inactive: 1.03
CC(C)CC#Cc1ccc2c(c1)O[C@@H](CN(C)C(=O)Cc1ccccn1)[C@H](C)CN([C@@H](C)CO)S2(=O)=O	inactive: 0.99
COc1ccc(S(=O)(=O)N(C)C[C@H]2Oc3ncc(-c4ccncc4)cc3C(=O)N([C@H](C)CO)C[C@H]2C)cc1	inactive: 0.987
C[C@@H]1CN([C@@H](C)CO)S(=O)(=O)c2ccc(C#C[C@@H](C)O)cc2O[C@@H]1CN(C)C(=O)c1ccncc1	inactive: 1
O=C(NCC(F)(F)F)[C@@H]1c2ccccc2C(=O)N(CC23CC4CC(CC(C4)C2)C3)[C@H]1c1ccc(CO)cc1	inactive: 0.977
C[C@H]1CN([C@@H](C)CO)C(=O)c2cc(-c3cccnc3)cnc2O[C@@H]1CN(C)Cc1ccc(-c2ccccc2)cc1	inactive: 1
C[C@H](CO)N1C[C@H](C)[C@@H](CN(C)C(=O)Cc2ccncc2)Oc2cc(C#CC3(O)CCCC3)ccc2S1(=O)=O	inactive: 0.994
C[C@@H]1CN([C@@H](C)CO)C(=O)CCCn2cc(nn2)CO[C@H]1CN(C)S(=O)(=O)c1ccc(Oc2ccccc2)nc1	inactive: 1.04
CC(C)N1CCOC[C@@]2(C1)CN(S(C)(=O)=O)CCO2	inactive: 1.01
Cc1noc(C)c1S(=O)(=O)Nc1ccc2c(c1)CC(=O)N([C@@H](C)CO)C[C@H](C)[C@@H](CN(C)Cc1ccc(C(=O)O)cc1)O2	inactive: 1.01
